Screen size: about 410,000 compounds; about 7,200 (1.8%) were called active. This list was built around the results that the source calls inconclusive (neither active nor inactive); the mix of calls is not that of the screen. Calls follow the shape of the dose curve; as a rule, active = well fitted activation curve with a large enough effect; inconclusive = small, poorly fitted or top-dose-only effect, or another doubt; inactive = no such curve, though single readings can be large or run the other way. Potencies of inconclusive entries are left out as doubtful fits.
test: qHTS of TDP-43 Inhibitors; details: TDP-43 expressing yeast growth rescue, BacTiter-Glo, 24 h; growth rescue (activation): at 46.1 µM (top of the series) unless noted; also: nearly all actives have a fitted effect of over 50% in size; as to growth rescue (activation): % of control where 0% means no effect
Procedure, shortened: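 Luminescence from BacTiter-Glo reports growth of TDP-43-expressing yeast after 24 hr at 30 deg C with compound. Cells were raffinose-pregrown to mid-log, then seeded in galactose medium at OD600=0.02.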
Potency is read from the fitted curve at half-maximal effect; tags tell the direction and shape of the fitted curve.

| SMILES | Potency | growth rescue (activation) |
| --- | --- | --- |
| O=C(CSc1nc2ncccc2o1)Nc1cccc(C(F)(F)F)c1 | active: 10 µM | – |
| Cc1ccc2c3c1C(=O)C(=O)N3C(C)(C)CC2C (stereo not drawn) | inconclusive [activator, single point] | – |
| Cc1c(NS(C)(=O)=O)cccc1-c1nc2cccnc2s1 | – | inactive: 12.6% |
| Fc1ccc(C2=CC(c3ccco3)n3ncnc3N2)cc1 (stereo not drawn) | inconclusive [activator, full curve, poor fit] | – |
| Cc1ccc(NC2=C(N3CCCCC3)C(=O)c3ccccc3C2=O)cc1 | – | inactive: 23.2% |
| O=C(Cc1coc(-c2ccc(F)cc2)n1)Nc1ccccc1 | inconclusive [activator, partial curve] | – |
| Fc1ccc2nc(Nc3ccccc3)sc2c1 | active: 15.8 µM | – |
| C=CCN(CC=C)Cc1cc(=O)oc2cc(C)ccc12 | inconclusive [activator, full curve, poor fit] | – |
| Nc1ncnc2c1ncn2[C@@H]1O[C@H](CO)[C@@H](O)[C@H]1O | – | inactive: 0% |
| CCN(C(=O)CSc1nc(-c2ccccc2)no1)c1ccccc1 | inconclusive [activator, single point] | – |
| C=CCOC(=O)COc1ccc2c(C)c(C)c(=O)oc2c1 | inconclusive [activator, partial curve] | – |
| CSc1ccc(-c2nnc(NC(=O)c3ccc4c(c3)OCCO4)o2)cc1 | inconclusive [activator, full curve] | – |
| O=C1C(=Cc2cn(-c3ccccc3)nc2-c2ccc(OCc3ccccc3F)cc2)SC(=S)N1CCS(=O)(=O)O | – | inactive: -0.559% |
| CC(OC(=O)CNC(=O)c1ccccc1F)C(=O)Nc1nc(-c2ccccc2)cs1 (stereo not drawn) | inconclusive [activator, single point] | – |
| COc1ccc(N2CCC(CNC(=S)Nc3c(C)cc(C)cc3C)C2)cc1 (stereo not drawn) | inconclusive [activator, partial curve] | – |
| Cc1csc(NC(=O)c2ccccc2O)n1 | – | inactive: -19.5% |
| Cc1cccc(C2CC(=O)Nc3cc4c(cc32)OCO4)c1 (stereo not drawn) | inconclusive [activator, partial curve] | – |
| O=[N+]([O-])c1ccc(O)c(/C=N/NC(=S)Nc2ccc(Cl)cc2Cl)c1 | inconclusive [activator, single point] | – |
| O=C(CCn1ccc2cc(S(=O)(=O)N3CCCC3)ccc21)NCc1ccccc1Br | – | inactive: 21% |
| CS(=O)(=O)c1ccc(C(=O)N2CCc3ccccc3C2)cc1 | inconclusive [activator, partial curve] | – |
| COc1cc(C)c(C2NC(=O)c3ccccc3N2)cc1C (stereo not drawn) | inconclusive [activator, partial curve] | – |
| O=C(Nc1nc2ccc(F)cc2s1)C1=NN(c2ccccc2)C(=O)CC1 | inconclusive [activator, partial curve] | – |
| Cc1cc(Nc2cccc(C(F)(F)F)c2)nc2ccc(NC(=O)c3cccc(Cl)c3)cc12 | active: 17.8 µM | – |
| Cc1csc(SCC(=O)Nc2cc([N+](=O)[O-])ccc2F)n1 | inconclusive [activator, partial curve] | – |
| CCOc1cc(C(=O)NCC(c2ccc(N(C)C)cc2)N2CCOCC2)cc(OCC)c1OCC (stereo not drawn) | – | inactive: 18.1% |

| SMILES | Potency | growth rescue (activation) |
| --- | --- | --- |
| CCC(=O)N1CCN(c2nc(-c3ccccc3)c3c(c2C#N)CCCC3)CC1 | inconclusive [activator, single point] | – |
| CN(Cc1cnc2nc(N)nc(N)c2n1)c1ccc(C(=O)NC(CCC(=O)O)C(=O)O)c2ccccc12 (stereo not drawn) | inconclusive [activator, full curve, poor fit] | – |
| FC(F)(F)c1ccc(NC(=S)NCc2ccccc2)cc1 | inconclusive [activator, full curve, poor fit] | – |
| CCOC(=O)c1ccc(NS(=O)(=O)N2CCCCCC2)cc1 | inconclusive [activator, partial curve] | – |
| Cc1ccc(Cc2c(-c3ccco3)nc3c(C)cc(Br)cn23)cc1 | inconclusive [activator, single point] | – |
| CCOc1ccccc1NC(=O)c1sc2nc(C)nc(N3CCOCC3)c2c1C | active: 7.94 µM | – |
| CCOC(=O)/C(=C/c1ccc(OC(=O)c2ccncc2)cc1)C(C)=O | inconclusive [activator, single point] | – |
| CC(C)(C)c1ccc(/C=C(\C#N)C(=O)NC2CC2)cc1 | active: 35.5 µM | – |
| Cc1ccc2oc(=O)n(CCCOc3ccccc3Cl)c2c1 | inconclusive [activator, single point] | – |
| CCc1cccc(NC(=O)CN(C)S(=O)(=O)c2ccc3c(c2)CCCN3C(C)=O)c1 | – | inactive: 10.8% |
| CCc1nn2c(=O)c(S(=O)(=O)Nc3ccc(Cl)cc3)c(C)nc2s1 | inconclusive [activator, partial curve, poor fit] | – |
| CC(=O)COC(=O)c1ccc2noc(-c3ccccc3)c2c1 | inconclusive [activator, single point] | – |
| COc1cc([N+](=O)[O-])cc(/C=N\NC(=O)C2COc3ccccc3O2)c1O (stereo not drawn) | inconclusive [activator, single point] | – |
| CCCCCCn1c(N2CCCC2)nc2c1c(=O)n(C)c(=O)n2C | inconclusive [activator, single point] | – |
| Cc1cccc(C)c1-n1nnnc1C1c2ccccc2C(=O)N1CCc1ccccc1F (stereo not drawn) | active: 35.5 µM | – |
| CC(C)(C)c1csc(N/N=C/c2ccc(O)cc2)n1 | inconclusive [activator, partial curve] | – |
| COc1ccc(CNC(=O)C[C@H]2C(=O)N(Cc3ccccc3)C[C@@H]2Cc2ccccc2)cc1 | inconclusive [activator, partial curve, poor fit] | – |
| CC(C)(C)c1cc(NS(=O)(=O)c2ccc(Br)s2)no1 | active: 22.4 µM | – |
| COc1cc2c(cc1OC)CN(C(=O)CCOc1ccccc1C)CC2 | inconclusive [activator, single point] | – |
| COC(=O)c1cc(Br)cn1S(=O)(=O)c1ccccc1 | – | inactive: 1.53% |
| Cc1ccc(S(=O)(=O)N2CCCCCC2)cc1[N+](=O)[O-] | inconclusive [activator, partial curve] | – |
| NC(=S)Nc1cccc2cc3ccccc3cc12 | inconclusive [activator, partial curve] | – |
| Cc1nc2ccccc2n1CCc1nc2c3ccccc3nc(SCc3ccc(C#N)cc3)n2n1 | – | inactive: 0% |
| O=C(NCC(c1ccc(F)cc1)N1CCOCC1)c1cccnc1Sc1ccccc1Cl (stereo not drawn) | inconclusive [activator, single point] | – |
| CCOc1ccc(NS(=O)(=O)c2ccc3[nH]c4c(c3c2)CCCCC4)cc1 | active: 17.8 µM | – |

| SMILES | Potency | growth rescue (activation) |
| --- | --- | --- |
| CN1CC(COCc2ccccc2)Oc2ccccc2S1(=O)=O (stereo not drawn) | inconclusive [activator, partial curve] | – |
| Cc1cc(NCc2ccccc2)nc(-c2ccccc2O)n1 | active: 11.2 µM | – |
| CCOC(=O)c1ccc(NC(=O)c2ccccc2N(C)S(=O)(=O)c2ccccc2)cc1 | active: 35.5 µM | – |
| Cc1nc(C/C(=N\Nc2ccccc2)c2ccc(O)cc2O)cs1 | active: 20 µM | – |
| CCOC(=O)c1c(C)[nH]c(C(=O)CN2CC(C)OC(C)C2)c1C (stereo not drawn) | – | inactive: 1.66% |
| COc1ccc(NC2CCCN(C(=O)CN3CCOC3=O)C2)cc1OC (stereo not drawn) | – | inactive: 6.1% |
| O=[N+]([O-])c1ccc(-c2nnc(-c3ccccc3)c(N3CCOCC3)n2)cc1 | inconclusive [activator, partial curve] | – |
| COc1cccc(OC)c1C(=O)NCCc1csc(-c2ccc(Cl)cc2)n1 | active: 22.4 µM | – |
| Nc1cnc(-c2ccccc2)nc1Cl | inconclusive [activator, partial curve] | – |
| CCc1ccc(NC(=O)c2sc3nc4n(c(=O)c3c2C)CCC4)cc1 | inconclusive [activator, single point] | – |
| O=C(COC(=O)c1cccc(S(=O)(=O)N2CCCCCC2)c1)Nc1ccccc1 | inconclusive [activator, single point] | – |
| OC(COc1ccccc1)CN1CCCC1 (stereo not drawn) | – | inactive: -1.29% |
| O=C(c1ccc2c(c1)N(Cc1cccc(F)c1)C(=O)c1ccccc1S2)N1CCCC1 | inconclusive [activator, partial curve, poor fit] | – |
| CCN=c1scc(-c2ccco2)n1/N=C/c1ccc(OC)c(O)c1 | inconclusive [activator, single point] | – |
| COc1ccc(C(CC(=O)Nc2ccc(C(C)=O)cc2)N2Cc3ccccc3C2=O)cc1 (stereo not drawn) | – | inactive: 4.51% |
| O=C(NCC(c1ccco1)N1CCN(c2ccc(F)cc2)CC1)C(=O)NC1CCCC1 (stereo not drawn) | – | inactive: 13% |
| Cn1c(SCc2ccc(C#N)cc2Cl)nc2ccccc21 | – | inactive: -4.96% |
| Cc1cccc(-c2nc3scc(CCNS(=O)(=O)c4ccc5c(c4)OCCO5)n3n2)c1 | – | inactive: 14.7% |
| Cc1ccc(S(=O)(=O)Nc2ccc(SC(F)F)cc2)c(C)c1 | – | inactive: -65.2% |
| CC(=O)c1ccc(N2CCN(C(=O)C3CCN(S(=O)(=O)c4cn(C)cn4)CC3)CC2)cc1 | – | inactive: 17.2% |
| O=C(NC(=S)NC1CCCc2ccccc21)c1ccc(F)cc1 (stereo not drawn) | inconclusive [activator, single point] | – |
| Brc1ccsc1-c1csc(-c2ccncc2)n1 | inconclusive [activator, single point] | – |
| Cc1onc(-c2ccccc2)c1C(=O)NC(=S)NNC(=O)c1ccccc1O | – | inconclusive: -58.8% [activator] |
